We go through 115 sequences from the BET-seq Pho4 binding data (Le et al. 2018).

This is one part of the list. The energies were worked out here from pooled read counts, against the library average; single values are noisy.

The test deals with T1, Pho4 (S. cerevisiae) (UniProt P07270).
T1 sequence: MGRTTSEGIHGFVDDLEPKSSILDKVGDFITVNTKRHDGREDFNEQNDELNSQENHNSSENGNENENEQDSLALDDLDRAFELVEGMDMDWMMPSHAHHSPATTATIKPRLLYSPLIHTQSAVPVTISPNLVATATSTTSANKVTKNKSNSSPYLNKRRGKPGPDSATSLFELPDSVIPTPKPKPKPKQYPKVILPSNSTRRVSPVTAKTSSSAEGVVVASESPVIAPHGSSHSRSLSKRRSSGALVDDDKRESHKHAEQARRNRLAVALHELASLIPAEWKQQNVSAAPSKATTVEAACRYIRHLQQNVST
Nature of the test: relative binding free energy (BET-seq); higher = weaker binding. Conditions: reference: library average.
GTAACCACGTGGGTGA: the “relative binding free energy” value is -0.15 kcal/mol. On to TTAGTCACGTGCCGTG, for which the “relative binding free energy” value was 0.03 kcal/mol. TGAAGCACGTGTGGAT: the “relative binding free energy” value came out at 0.2 kcal/mol. Regarding TGCGTCACGTGTGCAA, the “relative binding free energy” value amounted to 0.15 kcal/mol. For the sequence GAGCGCACGTGTTAGT, the “relative binding free energy” value was -0.13 kcal/mol. Turning to GTTAACACGTGTTTAG, the “relative binding free energy” value is 0.06 kcal/mol. The same measure for TGGTCCACGTGGGATT: -0.01 kcal/mol; for TTGGTCACGTGCGCAG: 0.05 kcal/mol; for TGTATCACGTGTCGGG: 0.09 kcal/mol. Regarding GTGGCCACGTGTTATA, the “relative binding free energy” value was -0.09 kcal/mol. As to TGTAGCACGTGGGTAC, the “relative binding free energy” value is -0.21 kcal/mol. TGTTACACGTGGAGGC: the “relative binding free energy” value was 0.12 kcal/mol.

Turning to TTAGGCACGTGGTATG, the “relative binding free energy” value is -0.19 kcal/mol. Turning to GGAGCCACGTGGGGGT, the “relative binding free energy” value is -0.04 kcal/mol.

On to TGGGGCACGTGCTAAT, for which the “relative binding free energy” value was -0.22 kcal/mol. For TGAGGCACGTGGTTCT, the “relative binding free energy” value was -0.13 kcal/mol.

TCCTTCACGTGTGTGT: the “relative binding free energy” value is 0.21 kcal/mol. As for TCTATCACGTGTTTAA, the “relative binding free energy” value turned out to be 0.19 kcal/mol. The same measure for GGAATCACGTGCGGCT: 0.26 kcal/mol; for ATATCCACGTGTGGTG: -0.02 kcal/mol. The result for AGGTGCACGTGGGCTA reads -0.24 kcal/mol; that for GTGGCCACGTGGTAGG, -0.03 kcal/mol.

As to CAGGACACGTGTAGGT, the “relative binding free energy” value is -0.02 kcal/mol. With TAGTTCACGTGGTTTC, the “relative binding free energy” value was determined as 0.34 kcal/mol. Take TCGGGCACGTGAAGTG: the “relative binding free energy” value amounted to 0.17 kcal/mol.

Turning to AGACTCACGTGGATGG, the “relative binding free energy” value stood at 0.22 kcal/mol. In the case of TGACTCACGTGGGATA, the “relative binding free energy” value stood at 0.13 kcal/mol. The same measure for GTTTACACGTGGCAGG: 0.14 kcal/mol; for AGTGACACGTGCGGTG: -0.11 kcal/mol.

For GGTGACACGTGTTCGT, the “relative binding free energy” value worked out at 0.21 kcal/mol. For CGTTACACGTGGGTGA, the “relative binding free energy” value is -0.05 kcal/mol.

For AGGTCCACGTGGATGT, the “relative binding free energy” value is -0.04 kcal/mol. Take GGTGGCACGTGGTCTT: the “relative binding free energy” value is -0.12 kcal/mol.

GGTCACACGTGGGATT: the “relative binding free energy” value is 0.08 kcal/mol. Take GAGTTCACGTGTTAAT: the “relative binding free energy” value amounted to 0.38 kcal/mol. The same measure for ATTAGCACGTGCGGGA: -0.08 kcal/mol.

For CATTACACGTGTGGGT, the “relative binding free energy” value was 0.22 kcal/mol.

With ATTGGCACGTGGGGTA, the “relative binding free energy” value is -0.21 kcal/mol. Regarding AAATTCACGTGTAAAT, the “relative binding free energy” value was 0.38 kcal/mol. As to GATTTCACGTGAAAGG, the “relative binding free energy” value came to 0.41 kcal/mol. With CTGGTCACGTGGTGAG, the “relative binding free energy” value was -0.09 kcal/mol. Regarding GTTTGCACGTGTAGGA, the “relative binding free energy” value was found to be 0.14 kcal/mol. The result for AAGGGCACGTGTCAGT reads -0.08 kcal/mol. The result for GGAGACACGTGAGTTT reads 0.39 kcal/mol; that for TTTCCCACGTGGTGGT, -0.19 kcal/mol; that for CGTTTCACGTGGGGGG, 0.1 kcal/mol. For TAAGTCACGTGTGGCT, the “relative binding free energy” value was 0.13 kcal/mol. CGAGACACGTGTTGTT: the “relative binding free energy” value is -0.03 kcal/mol.

In the case of ATCTTCACGTGAAGTT, the “relative binding free energy” value is 0.31 kcal/mol.

On to AGTATCACGTGGAGAA, for which the “relative binding free energy” value is 0.23 kcal/mol. The result for TGGTGCACGTGGAGAT reads -0.02 kcal/mol.

In the case of CGGTGCACGTGAGAGA, the “relative binding free energy” value amounted to 0.29 kcal/mol.

ATGGGCACGTGGCTAT: the “relative binding free energy” value was -0.21 kcal/mol.

Turning to AGGCGCACGTGATGTA, the “relative binding free energy” value turned out to be 0.05 kcal/mol. With CTGAACACGTGTGAGT, the “relative binding free energy” value stood at 0.11 kcal/mol. Turning to ATAAACACGTGGGTGG, the “relative binding free energy” value is -0.2 kcal/mol. The result for TAGCGCACGTGGATTG reads -0.06 kcal/mol; that for GTTAACACGTGGGATA, -0.02 kcal/mol. GTGGGCACGTGTGGAG: the “relative binding free energy” value is 0 kcal/mol. The result for CTTTTCACGTGGCATT reads 0.21 kcal/mol; that for TTATGCACGTGTGTGT, 0 kcal/mol. The same measure for ATATTCACGTGTGGCA: 0.31 kcal/mol; for TAGGTCACGTGAATCG: 0.32 kcal/mol; for AAGTACACGTGTGGGA: 0.09 kcal/mol. The result for ATTCTCACGTGTTGCT reads 0.07 kcal/mol. On to GTGAGCACGTGGGTTT, for which the “relative binding free energy” value was -0.14 kcal/mol. For the sequence TGATCCACGTGGTGTG, the “relative binding free energy” value is -0.17 kcal/mol. AGGTGCACGTGCGGGC: the “relative binding free energy” value is -0.02 kcal/mol. The result for GGAGTCACGTGAAATG reads 0.47 kcal/mol; that for TTGATCACGTGTGAAT, 0.25 kcal/mol. In the case of TATAGCACGTGTGAAT, the “relative binding free energy” value was 0.11 kcal/mol. The result for TGAGGCACGTGGCAAT reads -0.04 kcal/mol. The same measure for ATATGCACGTGGGTTC: -0.1 kcal/mol; for GGTTGCACGTGTCGTT: 0.2 kcal/mol; for TAGAGCACGTGAATGG: 0.14 kcal/mol. The same measure for ACTAACACGTGGGGGT: -0.23 kcal/mol; for TCGTGCACGTGTTGAG: 0.02 kcal/mol; for TGTGACACGTGGTCGT: -0.07 kcal/mol.

As to TTGTACACGTGTCAGG, the “relative binding free energy” value worked out at 0.04 kcal/mol. The same measure for GGTAGCACGTGTAGCT: 0.03 kcal/mol; for TTACTCACGTGGTCTT: 0.09 kcal/mol; for ATTGTCACGTGCGGGA: -0.03 kcal/mol.

Take AAAAACACGTGGGTGT: the “relative binding free energy” value is -0.17 kcal/mol. In the case of GTCATCACGTGAGGAG, the “relative binding free energy” value was found to be 0.4 kcal/mol. Consider TGTTGCACGTGAATGG, for which the “relative binding free energy” value was found to be 0.29 kcal/mol. Regarding CGAGTCACGTGGTCGG, the “relative binding free energy” value was -0.03 kcal/mol.

On to GAAGGCACGTGTATTG, for which the “relative binding free energy” value was -0.08 kcal/mol. CGTTACACGTGTAGGG: the “relative binding free energy” value is 0.1 kcal/mol. As to GCGGACACGTGGATGT, the “relative binding free energy” value was 0.04 kcal/mol. The result for CGTCTCACGTGTAGGT reads 0.26 kcal/mol; that for TGCTGCACGTGCGGTG, 0 kcal/mol. On to TGTGTCACGTGTTACG, for which the “relative binding free energy” value came to 0.11 kcal/mol. The same measure for TTGGGCACGTGGGCCA: -0.1 kcal/mol.

As for CGTTCCACGTGGTTTG, the “relative binding free energy” value worked out at 0.06 kcal/mol. With TGGGCCACGTGTTATT, the “relative binding free energy” value was 0.12 kcal/mol. As to AGGTTCACGTGAGTCA, the “relative binding free energy” value is 0.26 kcal/mol. The result for GCGGTCACGTGGGTTG reads 0.09 kcal/mol; that for TATTCCACGTGGGATT, 0.07 kcal/mol; that for GTGGTCACGTGGCGTA, 0.06 kcal/mol. Take GCAGTCACGTGGTGTT: the “relative binding free energy” value was 0.01 kcal/mol. As to GAGCACACGTGCGGGG, the “relative binding free energy” value amounted to 0.08 kcal/mol.

On to TCAATCACGTGGGGTG, for which the “relative binding free energy” value was 0 kcal/mol. Consider GTGACCACGTGTGTTG, for which the “relative binding free energy” value is -0.02 kcal/mol.

Take GATAGCACGTGGGTGT: the “relative binding free energy” value was -0.21 kcal/mol. With TTGGGCACGTGGAGTG, the “relative binding free energy” value was -0.1 kcal/mol. Consider AGAGGCACGTGGGAAA, for which the “relative binding free energy” value is -0.14 kcal/mol. The result for GTACTCACGTGGTGGC reads 0.37 kcal/mol; that for TTTCCCACGTGTGGGG, -0.03 kcal/mol; that for GTCTGCACGTGGTTAT, 0.03 kcal/mol. In the case of GGATTCACGTGATTAG, the “relative binding free energy” value was 0.34 kcal/mol.

In the case of CATGGCACGTGTGGTC, the “relative binding free energy” value was -0.11 kcal/mol.

As for CGTTTCACGTGGGTGC, the “relative binding free energy” value amounted to 0.13 kcal/mol.

TGGGACACGTGGGTTA: the “relative binding free energy” value was -0.05 kcal/mol. For the sequence ACTGACACGTGGAGTG, the “relative binding free energy” value came out at 0.03 kcal/mol. For the sequence AGGATCACGTGGCGGT, the “relative binding free energy” value stood at 0.02 kcal/mol.
